Measurements published in the supplement of paper PMC11417369.
This is one part of the list.

Each sequence was assayed on PF3D7_0420300 AP2 domain 1 (GST-tagged) (assay: gcPBM binding intensity (ln(normalized median fluorescence intensity)); higher = stronger DNA binding).
Procedure, shortened: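 Probes on an Agilent 4 × 180k array were primer-extended, double-stranded and 36 bp long, taken from intergenic genomic regions, with negative controls added. GST-tagged P. falciparum DNA-binding domains from E. coli, about 25 μg on average, were applied to the array for 1 h in 1× PBS containing 1% milk, 0.2 mg/ml BSA, 0.5% salmon testes DNA and 0.03% Triton X-100. Binding intensity, obtained after Alexa488 anti-GST antibody detection and a 488 nm scan, is the highest Masliner-normalised natural-log median intensity across replicate spots of either probe orientation.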

| Sequence | gcPBM binding intensity (ln) |
| --- | --- |
| AATATATTTTAGAGTTTTATATATTTTATGCATATA [GTGCAC_negctrl_site710] | 9.3 |
| TTCAAACATATTAATTGTACATACAACAAAACCATG [XGTACX_site5149] | 9.34 |
| ATATTATTTTATGCTACACACATTTTCTCTTATAAA [CACACA_site943] | 9.87 |
| TGGAAAATAAAGTACGCACACAAAAATTCTCTTCAT [CACACA_site2327] | 9.52 |
| GTTTGGTGGTGTTTTGGTACGTACGGGGGTGTATGT [XGTACX_site1211] | 10.1 |
| ATATTTATGGAATATACACACATGTATAATTACATA [CACACA_site7045] | 9.35 |
| TCTTTGTACTTTCACATGTACACCCAAATGGAAATT [CACACA_negctrl_site1442] | 9.14 |
| AAATAAATCTTATGCACACAAATAATTAATGAAACA [CACACA_site5011] | 9.4 |
| AGGACTAATATTTGAACACACATATAATAAATACAT [CACACA_site6068] | 9.61 |
| AAGACCATATGAATAATGCACACGTTTTAAAATATT [CACACA_site2323] | 9.39 |
| TTTCCATTTTCTCTATGTACATAAAAATGAGATAAA [XGTACX_site5689] | 8.9 |
| CACACGCACGGACACACACACAAAAAAAAAAAGAAA [CACACA_site6378] | 9.7 |
| TATTTATATTCATAATGTACATTCAATTATTGTTTT [XGTACX_site4191] | 9.49 |
| AAATATTAAATGACAAAAAAAAAAAAAAAAGGGGTT [CACACA_negctrl_site951] | 9.81 |
| TTCTTTATTTTTTCTACACACATTATATATTCAAAG [CACACA_site5866] | 9.86 |
| TATTTTGAAAATAAAAGTACAAATTTTATATTTAAA [XGTACX_site3238] | 8.7 |
| ATTTTTTTTTCTTAATGTACATACCAAAAAGAAAGA [XGTACX_site5471] | 8.84 |
| TATAATATATTTTAATGTACGTACATCCCGATTAAT [XGTACX_site7651] | 9.17 |
| TTTGTCTGCATACGCACACACGTGTACCATCTTATG [CACACA_site4784] | 9.68 |
| GATAAAATATGTTGCCGTACATATTCATATACTTAA [XGTACX_site4776] | 9.27 |
| TATTAATATATATGTTGTACAAGTTTTTTTTTTTTT [XGTACX_site5865] | 9.24 |
| TTCTATATTTCTTTTTGTACATATAAATTCAAATAA [XGTACX_site2476] | 9.17 |
| TATATACGCATTTTTATACACACTTGTTTTATAAAA [CACACA_site727] | 9.42 |

| Sequence | gcPBM binding intensity (ln) |
| --- | --- |
| ATATAAAATAATACATGTACATATTATATATATATA [XGTACX_site1082] | 9.26 |
| TACAGATATTTTATTTCACACATTTTATCATTTTCT [CACACA_site5701] | 9.59 |
| TTCAAAAAAGGAAAGTTGCACTTGATACGCTTATTA [GTGCAC_site9411] | 8.87 |
| AAGAAATAAATACATACACACATATATATATATATA [CACACA_site3362] | 9.49 |
| ATAAGTAATATAATATGTACATATATATATATATAT [XGTACX_site3818] | 9.3 |
| TATATATTGTTATAATGTACATAATATTTTATCTGC [XGTACX_site4983] | 9.19 |
| GGAAATTTCAATATTTGTACATATATATATATATAT [XGTACX_site3222] | 9.16 |
| AGAATAATTTTATCGGTACACACTGTATGCATAATA [CACACA_site374] | 9.46 |
| ATGCAAAATAAAGAAGCACACAAAAATGAAATATAT [CACACA_site9217] | 9.75 |
| TAAAAGTTCACCTGTACACACATATATATATGTACA [CACACA_site1707] | 9.44 |
| TTTTTTATTTTTTGTTATATTTATAATAATTTATGA [XGTACX_negctrl_site260] | 9.2 |
| TACTTTACACATATTTTTAATTATTCTGAATTCAAA [GTGCAC_negctrl_site253] | 9.08 |
| ATATATATATATGTAGTGCATTTTATATATAATATT | 9.22 |
| AACATAAAACGTAATATATTACAAATATAAACAATC [CACACA_negctrl_site1675] | 9.82 |
| TTACCATTTGAAAATTCACACACTTTATTTTGTTAT [CACACA_site3799] | 9.64 |
| ATATATATATATATATGTACATATTTTATAACTGTA [XGTACX_site5395] | 9.24 |
| ATTTATACATATAAACGTACATACATATATAATATT [XGTACX_site2969] | 9.3 |
| AACAAAAGTAATTAAAAACAATACAAACATATGTTT [XGTACX_negctrl_site220] | 9.2 |
| TGGATAAAATAAAAATGTACTTAACATTTATATTTT [XGTACX_site712] | 8.9 |
| TTTCTAATTTATATCACACACATATAAATATAGTAA [CACACA_site6210] | 9.36 |
| AAATAATATAAACATACACACACACCGATATATATA [CACACA_site8945] | 10.2 |
| ATGTATGAAAAAATGTGTACATAATTTTTTTTTTTT [XGTACX_site5444] | 9.17 |
| ATATATAGGTTCCCTTTTCTTTTTTTTTTTTTTTTT [CACACA_negctrl_site1159] | 9.28 |

| Sequence | gcPBM binding intensity (ln) |
| --- | --- |
| ATCATTCAAAAATGCTGTACTAGGGGAAAACGTGTT [XGTACX_site7168] | 9.26 |
| TTAAATGTTGGTTGTAGTACTCCATATGTTGTTTTA [XGTACX_site5312] | 9.5 |
| CTTATGTGCATACCTACACACTTACATATATATATA [CACACA_site8973] | 9.6 |
| TTTGGAATATTAATTGTGCACTTAAAAAGTTAATTA | 9 |
| TATATATATATAAGATGTACCCTTTGAAATAATAAT [XGTACX_site7215] | 9.2 |
| TGATACTGCAAAAAATATAAAAAAATAATAAAATAA [CACACA_negctrl_site791] | 9.1 |
| AGACAATAATATAATCGTACAATAAATAAAATAAAA [XGTACX_site5231] | 9.43 |
| AAATATAATATACAAAGTACTTTTTCATCTTATATA [XGTACX_site8771] | 9.07 |
| AAAATAATCTTTTGATTGCACTGTTACATTTTTTCT [GTGCAC_site9563] | 9.42 |
| TTTCTTCGAAATAGAACACTTGTGCAAAATAAGCAA [XGTACX_negctrl_site361] | 8.96 |
| TGAACAAAAAAAAATTGTACTTTTTTTTTAATATTT [XGTACX_site7172] | 8.97 |
| AAAAAAAACAATCTCATACACACTAGGGATTAATTA [CACACA_site1776] | 9.46 |
| ATTTTTTTATAAAATTTTTATATAATTTATTATAAA [GTGCAC_negctrl_site96] | 8.85 |
| TAAAGAGAAATATGTACATGCGAAAATGCCTTAAAT [TGCATGCA_site1050] | 9.3 |
| ATATATACTATAATAGTGCATTAAAAAAGTAAAAAT | 9.44 |
| CATAAAATATAAAACACACACACATATATATATATA [CACACA_site223] | 9.94 |
| TTCTGTATAATATAAAAACAAAAATTAAATTAAAAC [CACACA_negctrl_site81] | 9.22 |
| TTCCATGTAGGACATGCATGCAGTTTTTAAAATATT [TGCATGCA_site481] | 9.21 |
| AAATTTTTTATTCTAATTAATATTTACACAATATAT [TGCATGCA_negctrl_site376] | 9.1 |
| TATTATATAAATATACGTACATATACTAACCTTTTA [XGTACX_site6317] | 9.1 |
| ATATATAATTTTTGCTGTACACAAAATATTAATTTA [XGTACX_site2057] | 9.13 |
| TTTTATTAAAACCACGCATGCAGAGGAAACGGTGAG [TGCATGCA_site1029] | 9.39 |
| TATGACATATCCTGTAGTACAACGTATATATAAGAT [XGTACX_site1327] | 9.24 |

| Sequence | gcPBM binding intensity (ln) |
| --- | --- |
| AATAAAAATAATGAATGTACATATATATATACAATA [XGTACX_site3342] | 9.25 |
| ATATATAACGTGCACACACACATTTACGTATGAATA [CACACA_site6948] | 9.94 |
| TTTATGTATTTTTATGCACACATGCGTGGCTTATAT [CACACA_site4374] | 9.55 |
| TACGGACATACTAACGGACACACGTAAGAAAAAAAA [CACACA_site602] | 9.33 |
| TTTATAATAAAATTTTTACACACTTTAAAAAAAAAA [CACACA_site8070] | 8.95 |
| AATATTCGTAATTGATGTACTTGTAATTCATACATT [XGTACX_site8314] | 9.3 |
| TTTTTTTCAATATTTGCACACGATTATAATATTTAA [CACACA_site2237] | 9.35 |
| CAGAATAATTTTATCGGTACACACTGTATGCATAAT [XGTACX_site736] | 9.42 |
| AATAAATATCTGTACACACACAAATAAATACATATC [CACACA_site5108] | 10.1 |
| TATAATAAAAATAATACACACATATATAGCAATCGT [CACACA_site3241] | 9.99 |
| ATTAGTTTACACATATGTACATATATTACAACAAAA [XGTACX_site275] | 9.22 |
| GGTGATATAATATATACATGCACATATATATTATTA [TGCATGCA_site970] | 9.33 |
| TATGGAAATATATATTGTACGTATGACCTTTAAAAA [XGTACX_site3935] | 9.19 |
| TTTATATGTATGAAGTGTACACATATATTGTATTTT [XGTACX_site5731] | 9.32 |
| TTACAAAAAAATAATTGTACATACAATTTCTGTTAT [XGTACX_site877] | 8.99 |
| ATTATATCATCTAAAACATGCACACATATGTACTCT [TGCATGCA_site949] | 9.54 |
| GTTGAGAAAATATGTGCATGTCAGGTTAAATTTTTA [TGCATGCA_site744] | 9.23 |
| ATATATATATATATATGTACATAATATATGTCCTAT [XGTACX_site5087] | 9.21 |
| GTAAGCATAAATATATGTACATACATATACAGATAT [XGTACX_site3361] | 9.44 |
| TAAGATAAAAAAAATGCATGTTCTTATAATATTGTC [TGCATGCA_site939] | 9.29 |
